Our source for the binding signal values is publication PMC6212790.

The list shows a part of the results. At the low end of the ranking, values are background and their order means little.

The assay addresses T1, GST-Rok (full length) (UniProt O34857).
T1 sequence: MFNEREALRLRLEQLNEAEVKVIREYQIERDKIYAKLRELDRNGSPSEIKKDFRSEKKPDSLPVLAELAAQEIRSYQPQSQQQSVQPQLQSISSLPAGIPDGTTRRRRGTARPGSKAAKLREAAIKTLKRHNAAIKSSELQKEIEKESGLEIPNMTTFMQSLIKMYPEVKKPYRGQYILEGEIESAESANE
As to the kind of experiment: protein binding microarray.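 Note: rank score from −0.5 (least bound) to 0.5 (best bound).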 Conditions: Rok is a gene silencer of Bacillus subtilis; high values mean tight binding; most listed sequences are background and not binding sites; double strand, one strand shown.
As for ACAAGATG, the binding signal was found to be 0.0595 E-score.

As for AAGAAAGT, the binding signal turned out to be 0.196 E-score.

For CAAAGGGA, the binding signal is -0.273 E-score.

As to AAGCGGCG, the binding signal was -0.233 E-score.

In the case of ATGTCGTG, the binding signal was 0.0678 E-score.

GCTGATGA registered a binding signal of 0.015 E-score.

AGGCCCCA showed a binding signal of -0.319 E-score.

Turning to CGCATCGC, the binding signal was -0.115 E-score.

As to CCGGTATA, the binding signal was -0.0189 E-score.

In the case of ATCAGACA, the binding signal stood at 0.0832 E-score.

Turning to CTCAATTA, the binding signal is 0.136 E-score.

Take CATGAGGG: the binding signal was -0.336 E-score.

GCAAAACA: the binding signal was -0.0687 E-score.

ACGTTGTC displayed a binding signal of 0.0359 E-score.

In turn, CTGAAAAA displayed a binding signal of -0.101 E-score.

GGAAACCA came in with a binding signal of 0.021 E-score.

TAACGCGA displayed a binding signal of 0.0215 E-score.

The sequence ATGCAATG returned a binding signal of 0.139 E-score.

TGAGGTAA registered a binding signal of 0.232 E-score.

Regarding GAGGGCCA, the binding signal is -0.397 E-score.

AAAAATCC: the binding signal is -0.00162 E-score.

CATGCGAC registered a binding signal of -0.15 E-score.

The sequence CCCCCTCC returned a binding signal of -0.375 E-score.

AGCACTTC had a binding signal of -0.211 E-score.

On to CTGCGGGA, for which the binding signal is -0.343 E-score.

Take AAAGCACT: the binding signal is -0.195 E-score.

On to TGAGCACA, for which the binding signal was -0.0185 E-score.

The sequence GGAGGTTA showed a binding signal of -0.182 E-score.

CATCCTGG had a binding signal of -0.0994 E-score.

Take AAGAATGT: the binding signal worked out at 0.196 E-score.

The sequence AGAGGGCT registered a binding signal of -0.199 E-score.

Consider CAAATGCG, for which the binding signal was determined as 0.157 E-score.

As for GTTGCATA, the binding signal was -0.0386 E-score.

With AGGTCCTG, the binding signal was -0.11 E-score.

Sequence ACCCATAA displayed a binding signal of 0.192 E-score.

AAATCGAA gave a binding signal of 0.134 E-score.

AGGTTGCC showed a binding signal of -0.167 E-score.

As to AACCACGT, the binding signal is -0.0233 E-score.

CTGGCTTC came in with a binding signal of -0.141 E-score.

ACAAGGCA returned a binding signal of -0.0211 E-score.

Regarding CATGCATC, the binding signal is -0.0197 E-score.

For the sequence ACCCTTAC, the binding signal was -0.226 E-score.

In the case of GCAGCAAA, the binding signal is -0.101 E-score.

Take ATATAATG: the binding signal is 0.303 E-score.

ACTATTCC showed a binding signal of 0.171 E-score.

Regarding ACTAAAAC, the binding signal came to 0.303 E-score.

As to ACCTATCA, the binding signal was determined as 0.232 E-score.

Turning to CAGTGTAA, the binding signal was 0.192 E-score.

The sequence CCGCGTCG returned a binding signal of 0.0351 E-score.

GCCGGTCA showed a binding signal of 0.0813 E-score.

Consider AACCCCGA, for which the binding signal is -0.267 E-score.

ATACGAAA yielded a binding signal of 0.194 E-score.

AGGAGACC gave a binding signal of -0.199 E-score.

In turn, CACCATCG had a binding signal of -0.0961 E-score.

GCAATCTA showed a binding signal of 0.361 E-score.

On to ACGTGAAC, for which the binding signal came out at 0.0387 E-score.

Take AACAACAC: the binding signal was -0.114 E-score.

In the case of CCTTAGCG, the binding signal was -0.0304 E-score.

CCAATCCA had a binding signal of -0.00866 E-score.

Sequence ACATGCAA showed a binding signal of 0.138 E-score.

Turning to CGATTTAA, the binding signal came out at 0.0615 E-score.

As for CTTGGAAA, the binding signal was -0.0731 E-score.

Turning to CAGCATCC, the binding signal is -0.17 E-score.

CTACCCAG: the binding signal is 0.0539 E-score.

Consider AGAAAAGA, for which the binding signal was determined as 0.262 E-score.

CGCGGTTA registered a binding signal of -0.0283 E-score.

As to ACGCCCCA, the binding signal was -0.346 E-score.

ATCAGACG: the binding signal came out at 0.076 E-score.

CTAAGCCC came in with a binding signal of -0.373 E-score.

AGGACAGC gave a binding signal of -0.219 E-score.

Turning to CCCCGATC, the binding signal was -0.271 E-score.

Regarding AGAATTAC, the binding signal came out at 0.222 E-score.

As for AGGTAATC, the binding signal is -0.0361 E-score.

On to GTATGTGA, for which the binding signal was found to be 0.247 E-score.

In turn, ATTGGATG gave a binding signal of 0.111 E-score.

Consider AGGTACTA, for which the binding signal was found to be 0.152 E-score.

Consider TAGTAAGA, for which the binding signal worked out at 0.306 E-score.

For GATTTGCA, the binding signal was -0.0304 E-score.

As for CAGTGCGA, the binding signal was -0.0684 E-score.

ACACCCCG: the binding signal was -0.197 E-score.

With AGCGCTTG, the binding signal was 0.0188 E-score.

On to CGAATCTA, for which the binding signal was 0.305 E-score.

ACCTAGCC: the binding signal was determined as 0.0355 E-score.

The sequence TACGTCTA had a binding signal of 0.0433 E-score.

In turn, CCATGGCC showed a binding signal of -0.252 E-score.

As for AATTATAG, the binding signal was found to be 0.381 E-score.

Sequence GGCGTCCA returned a binding signal of -0.223 E-score.

In turn, ATAGACGC gave a binding signal of -0.0267 E-score.

Take AAACAGGT: the binding signal is 0.0116 E-score.

ACCTCCGC yielded a binding signal of -0.101 E-score.

ACAGTACA: the binding signal is 0.0817 E-score.

GTCTACAA: the binding signal is 0.11 E-score.

In turn, CAACGCGC returned a binding signal of -0.108 E-score.

AACATCCA showed a binding signal of 0.306 E-score.

In turn, CTAACTGA came in with a binding signal of 0.127 E-score.

Turning to ACAGTAGA, the binding signal stood at 0.305 E-score.

As for GACTATCA, the binding signal is -0.0777 E-score.

AGCAACTC yielded a binding signal of 0.000962 E-score.

In turn, CTGCTAGA showed a binding signal of 0.0802 E-score.

GATATCGC displayed a binding signal of 0.232 E-score.

As to CGATGGAG, the binding signal stood at 0.0372 E-score.

CTGCGGTC gave a binding signal of -0.201 E-score.

Sequence GAGTCCCC returned a binding signal of -0.303 E-score.

Sequence AAAGCCCG displayed a binding signal of -0.297 E-score.

In turn, ACACAGAA registered a binding signal of 0.193 E-score.

As for AACCGCAT, the binding signal was -0.0448 E-score.

Take GAGCCGGC: the binding signal was -0.361 E-score.

In the case of GGTGGTGA, the binding signal is 0.0128 E-score.

Sequence ATCTGATG showed a binding signal of 0.149 E-score.

Consider TGTATTAA, for which the binding signal is 0.241 E-score.

Sequence AGGTTTTC yielded a binding signal of 0.0454 E-score.

As for AAGGCCCG, the binding signal is -0.355 E-score.

Consider CTGTTATA, for which the binding signal stood at 0.308 E-score.

The sequence AGTACTAG had a binding signal of 0.385 E-score.

CGCCAATA came in with a binding signal of -0.094 E-score.

Consider CCCCTAAC, for which the binding signal was -0.172 E-score.

Sequence AACTCTCC registered a binding signal of -0.0705 E-score.

For AAGGTACC, the binding signal was 0.235 E-score.

Turning to ATGTGTAG, the binding signal stood at 0.222 E-score.

In turn, AAGTATAA showed a binding signal of 0.142 E-score.

In turn, ATGGGTGC displayed a binding signal of 0.0432 E-score.

ATTGGTCA showed a binding signal of 0.144 E-score.

CCGCCCTC registered a binding signal of -0.363 E-score.

The sequence CTGTTTCA came in with a binding signal of -0.0347 E-score.

Take ATTAAGGA: the binding signal is -0.0162 E-score.

The sequence AGTTGAGC displayed a binding signal of -0.159 E-score.

As for AGGCTTCC, the binding signal was -0.322 E-score.

For the sequence TCTTCCCA, the binding signal was -0.0364 E-score.

ACCTCAAA had a binding signal of 0.000394 E-score.

Sequence AGCGAAAA displayed a binding signal of 0.0776 E-score.

Turning to CCAGCTAA, the binding signal turned out to be 0.0629 E-score.

For the sequence AATCCTAA, the binding signal was 0.024 E-score.

AAGCAGTC had a binding signal of -0.138 E-score.

For GTCACGCA, the binding signal is -0.126 E-score.

On to ATGCGAAG, for which the binding signal is 0.129 E-score.

In turn, AGATGTTA had a binding signal of 0.172 E-score.

As to GGCGCCAC, the binding signal was -0.328 E-score.

Regarding AGGGGCCC, the binding signal is -0.462 E-score.

Consider CGGGAATC, for which the binding signal was -0.204 E-score.

As for GCCTAATA, the binding signal is 0.0372 E-score.

Turning to GCCTTTTA, the binding signal is 0.0531 E-score.

For the sequence ACGGCTTC, the binding signal is -0.102 E-score.

The sequence ATCATCGG gave a binding signal of -0.0858 E-score.

For the sequence CGCTCTCC, the binding signal is -0.28 E-score.

The sequence ATTCAGCA gave a binding signal of 0.213 E-score.

With CATCGACG, the binding signal is 0.0155 E-score.

For the sequence CCAGTGTA, the binding signal turned out to be 0.0299 E-score.

Sequence AAAGTAGC yielded a binding signal of 0.223 E-score.

As to ATTTAGAG, the binding signal is -0.0311 E-score.

GTATTCAA returned a binding signal of 0.0317 E-score.

The sequence CTGCGGCA yielded a binding signal of -0.188 E-score.

For the sequence GCAATTTA, the binding signal was determined as 0.279 E-score.

Regarding CCCCTCGA, the binding signal is -0.316 E-score.

GGAATGAC registered a binding signal of -0.0154 E-score.

Take CTTTCTGA: the binding signal was -0.206 E-score.

Consider CTGGAGGA, for which the binding signal was -0.293 E-score.

In the case of ACGGTTAA, the binding signal is -0.0462 E-score.

CGTCCGCC displayed a binding signal of -0.295 E-score.

Sequence GCCGAAAA yielded a binding signal of 0.103 E-score.

Sequence AGAACTCG returned a binding signal of -0.115 E-score.

Consider AGACCAAC, for which the binding signal was -0.293 E-score.

In the case of CGAGCCAC, the binding signal was -0.119 E-score.

In turn, CCGGATAG came in with a binding signal of -0.152 E-score.

Take AGTCGTCC: the binding signal is -0.0515 E-score.

On to AAATCTCG, for which the binding signal worked out at 0.144 E-score.

Take TCATCGAA: the binding signal was -0.0642 E-score.

As for CCGCCGAG, the binding signal is -0.146 E-score.

CGGAGGTA: the binding signal was -0.126 E-score.

The sequence AGTAGGTG showed a binding signal of 0.174 E-score.

Take GCTGCGCC: the binding signal is -0.172 E-score.

Sequence AACGCTAT showed a binding signal of 0.0873 E-score.

The sequence CGTCACTC had a binding signal of -0.0177 E-score.
